# Data from the BET-seq Pho4 binding data (Le et al. 2018).
# The other results are listed elsewhere or left out. The energies were worked out here from pooled read counts, against the library average; single values are noisy.
# Target: T1, Pho4 (S. cerevisiae) (UniProt P07270)
# T1 sequence: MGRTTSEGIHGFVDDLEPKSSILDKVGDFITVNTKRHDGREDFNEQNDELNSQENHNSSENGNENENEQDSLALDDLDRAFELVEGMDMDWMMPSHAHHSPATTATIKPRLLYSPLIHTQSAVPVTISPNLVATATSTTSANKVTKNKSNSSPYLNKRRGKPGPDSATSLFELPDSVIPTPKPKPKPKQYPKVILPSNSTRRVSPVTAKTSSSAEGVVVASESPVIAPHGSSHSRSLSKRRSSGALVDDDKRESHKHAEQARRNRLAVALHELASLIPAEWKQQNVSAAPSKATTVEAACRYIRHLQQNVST
# Assay: relative binding free energy (BET-seq); higher = weaker binding
# Conditions: reference: library average
row,Sequence,relative binding free energy [kcal/mol]
1,AAGGGCACGTGCGTGA,-0.1
2,TAGTCCACGTGGTTTG,0.02
3,CTTTGCACGTGATTAT,-0.06
4,TTTTACACGTGTATAA,0.15
5,GGGGTCACGTGGGGAT,0.02
6,GTGTCCACGTGTGTGA,0.07
7,GGGTTCACGTGAAGGA,0.55
8,ATTTGCACGTGGGCAT,-0.14
9,TGATTCACGTGCATTT,0.14
10,TAATTCACGTGGATTG,0.13
11,GGGGACACGTGGCGGA,-0.01
12,TGTTTCACGTGAAGAG,0.24
13,GTAGACACGTGATAGT,0.17
14,AAGAGCACGTGAGGTT,0.08
15,ATTGGCACGTGATATA,-0.18
16,TTACTCACGTGTGTAG,0.08
17,TTTGACACGTGGAGTC,0.14
18,GTCGACACGTGAGTGT,0.45
19,GGAAGCACGTGTTGCT,-0.08
20,CGTTGCACGTGTATCG,0.13
21,GTTTTCACGTGGGATC,0.38

row,Sequence,relative binding free energy [kcal/mol]
1,ATCGTCACGTGGTATA,0.04
2,TACTTCACGTGATTTT,0.36
3,TTAATCACGTGATTGG,0.35
4,TCTATCACGTGGGCTT,0.18
5,AGAGGCACGTGATGGT,-0.02
6,ATAGTCACGTGGAAGG,0.08
7,ACTGACACGTGTTGTT,-0.03
8,ATCGGCACGTGGTTAT,-0.14
9,TAAATCACGTGAGTAG,0.28
10,TGGTCCACGTGAATGG,0.29
11,GGTTGCACGTGGGTTT,-0.07
12,TTATGCACGTGTGAAG,0.08
13,AGTATCACGTGGTACG,0.17
14,TAGTCCACGTGTAGGT,0.03
15,GATGGCACGTGGGTGT,-0.13
16,TGTTCCACGTGGTTCG,-0.04
17,GTCATCACGTGTTTGG,0.15
18,GTATTCACGTGGGTAG,0.25
19,ATAGACACGTGGGCGG,-0.16
20,AGGTTCACGTGAGGTG,0.47
21,TAGGTCACGTGCAATG,0.12

row,Sequence,relative binding free energy [kcal/mol]
1,TCAATCACGTGTGTTT,0.28
2,TTGAACACGTGTTATG,0.13
3,TTTGACACGTGGTGCA,-0.13
4,ATATCCACGTGAGGAG,0.31
5,TGGGCCACGTGTCGTT,-0.09
6,GGGTACACGTGTGAAT,0.14
7,TGTTGCACGTGCTTGC,-0.14
8,TTTGTCACGTGGTCGT,0
9,TTCAGCACGTGATGGT,0.05
10,TCGGCCACGTGTGGTA,-0.06
11,CTGAACACGTGGCGGG,0.03
12,TTTGTCACGTGGTGTG,0.08
13,AAGTTCACGTGGGCAT,0.09
14,TTCGTCACGTGTATGT,0.11
15,ATTCGCACGTGTGGTG,-0.01
16,GCGGGCACGTGGGGCT,-0.3
17,TGCAACACGTGGTGGA,0.01
18,TGGGACACGTGTAAGC,0.3
19,TATGACACGTGAGCTG,0.29
20,TCTTTCACGTGGTGGC,0.28
21,TGTGTCACGTGATGTA,0.28
